Source: PubChem BioAssay AID504466 (National Center for Advancing Translational Sciences (NCATS), 2011)
Out of some 330,000 compounds screened, about 4,200 (1.3%) were called active. This list was built around the results that the source calls inconclusive (neither active nor inactive); the mix of calls is not that of the screen. Calls follow the shape of the dose curve; as a rule, active = well fitted activation curve with a large enough effect; inconclusive = small, poorly fitted or top-dose-only effect; inactive = no such curve, though single readings can be large or run the other way. Potencies beside an inconclusive call are fits to weak or partial responses and may not hold up.

experiment: qHTS screen for small molecules that induce genotoxicity in human embryonic kidney (HEK293T) cells expressing luciferase-tagged ELG1; details: HEK293T ELG1-luciferase reporter, luminescence, 16 h; series mostly up to 46 µM; also: nearly all actives have a fitted effect of over 60% in size
Procedure, shortened: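 Genotoxicity was scored as increased ELG1-luciferase reporter signal, measured by ONE-Glo luminescence (30 min, room temperature). Compound or vehicle exposure of the HEK293T reporter cells lasted 16 hr at 37°C.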
Potency is read from the fitted curve at half-maximal effect; tags tell the direction and shape of the fitted curve.

Row | SMILES | Potency
1 | C(=N\Nc1nc2ccccc2[nH]1)/c1cccc2nccnc12 | inconclusive: 2.31 µM [activator, full curve, poor fit]
2 | Nc1ccc(-c2nnc(-c3ccc(N)cc3)o2)cc1 | active: 16.4 µM
3 | CCOC(=O)c1sc(Nc2ccccc2)nc1C | active: 16.4 µM
4 | Cc1cc(/C([O-])=C(/C(=S)Nc2ccccc2)[n+]2ccccc2)c(C)n1-c1ccccc1 | active: 10.3 µM
5 | COc1ccc(Cl)c2sc(NC(=O)C3=COCCO3)nc12 | inconclusive: 20.6 µM [activator, single point]
6 | O=C(c1cccc(-c2ccc(O)cc2)c1)N1CCOCC1 | inconclusive: 18.4 µM [activator, single point]
7 | O=C(CCNC(=O)c1ccc(Cl)cc1)NCCC1=CCCCC1 | inconclusive: 8.2 µM [activator, single point]
8 | Cc1cc(C(=O)COC(=O)c2ccc(O)cc2)c(C)n1CC(F)(F)F | inconclusive: 2.31 µM [activator, full curve]
9 | CCCCNS(=O)(=O)c1ccc(NC(=O)C(Sc2ccccc2)c2ccccc2)cc1 (stereo not drawn) | inactive
10 | CCCCOc1ccc(C(=O)N2CCCCCC2)cc1 | inconclusive: 25.9 µM [activator, partial curve, poor fit]
11 | COc1ccc(NC(=O)CN(C)C(=O)CNC(=O)c2sc3ccccc3c2Cl)cc1 | inconclusive: 10.3 µM [activator, partial curve, poor fit]
12 | O=C(c1cc2c(s1)-c1ccccc1OC2)N1CCCC1 | inconclusive: 2.91 µM [activator, single point]
13 | Fc1ccc(CSc2nnc(-c3ccccn3)o2)cc1 | inconclusive: 7.3 µM [activator, single point]
14 | CCN(Cc1ccccc1)C(=O)CCCOc1ccccc1 | inconclusive: 18.4 µM [activator, partial curve, poor fit]
15 | O=C1OC(c2ccccc2)=N/C1=C\N1CCCCC1 | inconclusive: 16.4 µM [activator, partial curve]
16 | O=C(Nc1cccc(F)c1)c1ccc2c(c1)OCCO2 | inconclusive: 14.1 µM [activator, partial curve]
17 | CN(C)c1ccc(C(=O)c2ccc(O)cc2O)cc1 | inconclusive: 16.4 µM [activator, single point]
18 | COc1ccccc1/C=C/C(=O)OCC(=O)N1CCCCC1 | inconclusive: 23.1 µM [activator, partial curve, poor fit]
19 | O=C(O)c1nc2ccccc2nc1C(=O)O | inconclusive: 18.4 µM [activator, partial curve, poor fit]
20 | COc1ccccc1OCC(=O)O/N=C(\N)c1ccccn1 | active: 9.2 µM
21 | O=C(Nc1cccc(O)c1)c1cc(-c2cccs2)on1 | active: 11.6 µM
22 | S=C(Nc1ccccc1)Nc1nc2ccccc2n1CCOc1ccc(Cl)cc1 | inconclusive: 29.1 µM [activator, single point]
23 | COc1cccc(NC(=O)Nc2ccc3nsnc3c2)c1 | inactive
24 | CC(C)c1ccc(CNc2ncccn2)cc1 | inconclusive: 3.16 µM [activator, single point]

Row | SMILES | Potency
25 | CNC(=O)c1csc(-c2ccc(Cl)cc2)n1 | inconclusive: 23.1 µM [activator, partial curve, poor fit]
26 | O=C(Oc1ccccc1-c1csnn1)c1cccs1 | inactive
27 | CCN1C(=O)c2ccc(C(=O)O)cc2C1=O | inactive
28 | COC(=O)c1cc(Br)c(=O)n(-c2nccs2)c1 | inactive
29 | CC(=O)Nc1ccc(/C(C)=N/Nc2nc(N3CCOCC3)nc(N3CCOCC3)n2)cc1 | inactive
30 | COc1ccccc1C(=O)Nc1ccc(S(=O)(=O)N2CCc3ccccc32)cc1 | inactive
31 | CCn1c(SCC(=O)c2ccc(Cl)cc2)nnc1C(C)C | inconclusive: 23.1 µM [activator, partial curve, poor fit]
32 | CC(=O)c1ccc(NC(=O)c2cnsn2)cc1 | inconclusive: 4.11 µM [activator, full curve]
33 | CC(C)(C)c1ccc(C(=O)Nc2cccnc2)cc1 | active: 2.31 µM
34 | Cn1c(=NC(=O)c2ccco2)sc2cccc(F)c21 | inconclusive: 2.31 µM [activator, full curve]
35 | Cc1ccsc1C(=O)NNC(=O)C1CCCCC1C(=O)O (stereo not drawn) | inconclusive: 20.6 µM [activator, single point]
36 | COc1ccc(C(=O)N2CCn3c2nc2ccccc23)cc1 | inconclusive: 16.4 µM [activator, single point]
37 | COc1ccc(C(=O)NC(=S)Nc2ccccc2F)cc1 | inconclusive: 9.2 µM [activator, partial curve]
38 | Cc1ccnc(NC(=O)CCC(=O)c2cccs2)c1 | inconclusive: 0.291 µM [activator, partial curve, poor fit]
39 | Cc1ccc(OCC(=O)Nc2ccc(F)cc2)c([N+](=O)[O-])n1 | inconclusive: 18.3 µM [activator, partial curve]
40 | CCCC(=O)Nc1nc(-c2ccccc2)ns1 | inactive
41 | Cn1cc(CCNC(=O)c2ccc3nc(Cc4ccccc4F)oc3c2)cn1 | inconclusive: 7.3 µM [activator, partial curve]
42 | COc1cccc2sc3cc(NCC[C@@H]4CCCN4C)ccc3c(=O)c12 | inconclusive: 18.3 µM [activator, single point]
43 | COc1ccc2nc(NC(=O)CSc3nnc(C)s3)sc2c1 | active: 20.6 µM
44 | COc1ccc(CCN2CC(C(=O)N3CCC(O)(c4ccccc4)CC3)CCC2=O)cc1 (stereo not drawn) | inactive
45 | COc1ccccc1C(=O)Nc1nc2ccccc2[nH]1 | inconclusive: 0.073 µM [activator, partial curve, poor fit]
46 | N=C1C(c2nc3ccccc3[nH]2)=C(O)CN1C1CCCCC1 | inconclusive: 14.6 µM [activator, partial curve]
47 | C[C@H](CO)N1C[C@H](C)[C@@H](CN(C)S(C)(=O)=O)Oc2c(NC(=O)C3CCCCC3)cccc2C1=O | inactive
48 | Cc1cccc(NC(=O)CN(C)S(=O)(=O)c2ccc(Br)cc2)n1 | inactive
